Where two headings read alike, the source gives them in different places. Not every detail of the peptide structures is certain; ends, links or a residue may be inferred. At least one structure is not confirmed: it was looked up by name or label, or the drawing left a doubt. Peptide text beside a SMILES is read from it. * marks the point of attachment. X1 = CN(C)c1ccc2c(c1)Oc1cc(N(C)C)ccc1C21OC(=O)c2cc(N3C(=O)CC(*)C3=O)ccc21
Assays:
[1] = target: T1, full-length RIα (Bos taurus, UniProt P00514); assay: Fluorescence anisotropy binding assay (Example 9); set-up: species or system bovine; conditions: for binding to RIα, in words: compared with the unsubstituted peptide
T1 construct: Full-length bovine RIα was expressed in E. coli 222; made in house; host or cells: E. coli 222
T1 sequence (P00514 whole entry): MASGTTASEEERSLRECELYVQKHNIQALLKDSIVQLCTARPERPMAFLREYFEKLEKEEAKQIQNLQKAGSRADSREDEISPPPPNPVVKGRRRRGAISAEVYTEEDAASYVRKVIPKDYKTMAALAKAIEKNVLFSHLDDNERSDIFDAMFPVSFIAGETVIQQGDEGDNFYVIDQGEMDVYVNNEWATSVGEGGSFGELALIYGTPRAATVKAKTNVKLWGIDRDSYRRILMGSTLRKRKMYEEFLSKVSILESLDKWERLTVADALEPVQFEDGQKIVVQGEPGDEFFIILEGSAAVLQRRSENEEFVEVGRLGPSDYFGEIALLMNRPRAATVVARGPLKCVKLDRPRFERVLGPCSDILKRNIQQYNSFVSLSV
Method: (§1) Each peptide was fluorescently labeled using a 25 mM solution of tetramethylrhodamine-5-maleimide (catalog number T-6027; Molecular Probes, Eugene, Oreg.) dissolved in DMSO. The peptides were labeled by incubating with a three-fold molar excess of the label for 16 hr at 4° C. in 20 mM Tris, pH 7.0 and 1 mM tris-(2-carboxyethyl) phosphine, hydrochloride (TCEP) (non-thiol reducing agent, Molecular Probes). The sample was quenched with 1 mM, β-mercaptoethanol to bind to any unreacted maleimide and diluted with 0.1% TFA for purification by HPLC. The labeled peptides were resolved using a C18 column with a water/acetonitrile gradient containing 0.1% TFA. The concentration of each peptide was determined by absorbance at 541 nm after diluting into 100% methanol and using an extinction coefficient of 91,000 M^−1 cm^−1 for absorbance of the rhodamine label at 541 nm (Molecular Probes Catalog). The peptides were stored at 4° C. in 50% acetonitrile.
(§2) Full-length murine RIIα was expressed in E. coli BL21 (DE3). Full-length bovine RIα was expressed in E. coli 222. The proteins were purified as previously described using a cAMP affinity resin (Hamuro et al. (2002) J. Mol. Biol., 321:703). The protein concentrations were determined using the following extinction coefficients at 280 nm, which were calculated using a standard concentration of protein calibrated using quantitative amino acid analysis: RIα 52,603 M^−1 cm^−1 and RIIα 62,456 M^−1 cm^−1. The proteins were stored at 4° C. in 50 mM MES pH 5.8, 50 mM NaCl, 2 mM EDTA, 2 mM EGTA, 2 mM DTT.
(§3) Binding of each fluorescently labeled peptide to the regulatory subunits was monitored using fluorescence anisotropy. RIα and RIIα were serially diluted beginning at 1 μM and 0.1 μM, respectively, into 10 mM HEPES pH 7.4, 0.15 M NaCl, 3 mM EDTA, 0.005% Surfactant P20 (Biacore) containing either 10 nM or 1 nM of fluorescently labeled peptide for RIα and RIIα, respectively. The samples were equilibrated for at least 1 hour at room temperature and fluorescence anisotropy monitored using a Fluoromax-2 (Jobin Yvon Horiba, SPEX Division, Edison, N.J.) equipped with Glan-Thompson polarizers. The rhodamine-labeled peptide was excited at 541 nm (5-10 nm bandpass) and emission monitored at 575 nm (5-10 nm bandpass). The anisotropy was calculated directly with the Fluoromax software using the following equation: r=(IVV−G*IVH)/(IVV+2G*IVH) (1) where r is the steady state anisotropy, IVV is the fluorescence intensity with the excitation and emission polarizers oriented in the vertical position (0° from normal), IVH is the fluorescence intensity with the excitation polarizer in the vertical position and the emission polarizer oriented in the horizontal position (90°) relative to the excitation polarizer, G is the monochromator grating factor which is equal to (IHV/IHH), with the first subscript indicating the position of the excitation polarizer and the second subscript indicating position of the emission polarizer. Three separate binding experiments were averaged and fit to a 1:1 binding model using the non-linear regression application in GraphPad Prism version 3.00 (GraphPad Software, San Diego, Calif.).

[2] = target: T2, full-length RIIα (Mus musculus, UniProt P12367); assay: Fluorescence anisotropy binding assay (Example 9); set-up: species or system murine; conditions: for binding to RIIα, in words: compared with the unsubstituted peptide
T2 construct: Full-length murine RIIα was expressed in E. coli BL21 (DE3); made in house; host or cells: E. coli BL21 (DE3)
T2 sequence (P12367 whole entry): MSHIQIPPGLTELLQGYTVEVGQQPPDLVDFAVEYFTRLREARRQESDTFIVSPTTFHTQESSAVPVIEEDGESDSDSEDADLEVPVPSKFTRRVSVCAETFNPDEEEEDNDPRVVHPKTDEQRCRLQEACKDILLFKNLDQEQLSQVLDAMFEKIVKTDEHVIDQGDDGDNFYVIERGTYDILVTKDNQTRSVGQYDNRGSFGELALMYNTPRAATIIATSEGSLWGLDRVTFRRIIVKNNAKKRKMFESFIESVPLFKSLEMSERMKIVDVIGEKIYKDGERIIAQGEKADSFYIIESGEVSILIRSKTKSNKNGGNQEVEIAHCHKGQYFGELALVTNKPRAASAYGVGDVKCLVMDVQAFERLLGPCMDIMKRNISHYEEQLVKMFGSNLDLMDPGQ
Method: as §1, §2, §3

[3] = Table 7, n = 3, standard error in next column, 10 nM labeled peptide, read-out: Rlα (nM) (KD)
[4] = Table 8, truncated and substituted peptides, read-out: KD (nM) Rlα
[5] = Table 7, n = 3, standard error in next column, 1 nM labeled peptide, read-out: Rllα (nM) (KD)
[6] = Table 8, truncated and substituted peptides, read-out: KD (nM) Rllα

SMILES	Kd [2, 5] [nM]	binding to RIIα, in words [2]	further results
CC[C@H](C)[C@H](NC(=O)[C@H](CCCCN)NC(=O)[C@H](Cc1c[nH]c2ccccc12)NC(=O)[C@H](C)NC(=O)[C@H](CC(C)C)NC(=O)[C@H](CCC(=O)O)NC(=O)[C@H](CCC(=O)O)NC(=O)[C@H](CCC(N)=O)NC(=O)[C@H](C)NC(=O)[C@H](CCC(=O)O)NC(=O)[C@H](CC(=O)O)NC(=O)[C@@H](NC(=O)[C@H](CC(N)=O)NC(=O)CNC(=O)[C@H](CCC(N)=O)NC(=O)[C@@H](N)C(C)C)[C@@H](C)O)C(=O)N[C@@H](C)C(=O)N[C@@H](CCCCN)C(=O)N[C@@H](CCSC)C(=O)N[C@H](C(=O)N[C@H](C(=O)N[C@@H](CO)C(=O)N[C@@H](CC(=O)O)C(=O)N[C@H](C(=O)N[C@@H](CCSC)C(=O)N[C@@H](CCC(N)=O)C(=O)N[C@@H](CCC(N)=O)C(=O)N[C@@H](CSC1CC(=O)N(c2ccc3c(c2)C(=O)OC32c3ccc(N(C)C)cc3Oc3cc(N(C)C)ccc32)C1=O)C(N)=O)C(C)C)C(C)C)[C@@H](C)CC (stereo partly shown) [AKB (dual)] (H-VQGNTDEAQEELAWKIAKMIVSDVMQQC(X1)-NH2; N-terminus assumed)	2.2		Kd [1, 3]: 48 nM; Kd [1, 4]: 48 nM; Kd [2, 6]: 2.2 nM
CC[C@H](C)[C@H](NC(=O)[C@H](CCCCN)NC(=O)[C@H](Cc1c[nH]c2ccccc12)NC(=O)[C@H](C)NC(=O)[C@H](CC(C)C)NC(=O)[C@H](CCC(=O)O)NC(=O)[C@H](CCC(=O)O)NC(=O)[C@@H](N)Cc1ccccc1)C(=O)N[C@@H](C)C(=O)N[C@@H](CCCCN)C(=O)N[C@@H](CCSC)C(=O)N[C@H](C(=O)N[C@H](C(=O)N[C@@H](CO)C(=O)N[C@@H](CC(=O)O)C(=O)N[C@H](C(=O)N[C@@H](Cc1ccccc1)C(=O)N[C@@H](CCC(N)=O)C(=O)N[C@@H](CCC(N)=O)C(=O)N[C@@H](CSC1CC(=O)N(c2ccc3c(c2)C(=O)OC32c3ccc(N(C)C)cc3Oc3cc(N(C)C)ccc32)C1=O)C(N)=O)C(C)C)[C@@H](C)CC)[C@@H](C)CC (stereo partly shown) [PV-49] (H-FEELAWKIAKMIISDVFQQC(X1)-NH2)		bound very tightly to RIIα	
CC[C@H](C)[C@H](NC(=O)[C@H](CCCCN)NC(=O)[C@H](Cc1c[nH]c2ccccc12)NC(=O)[C@H](C)NC(=O)[C@H](CC(C)C)NC(=O)[C@H](CCC(=O)O)NC(=O)[C@H](CCC(=O)O)NC(=O)[C@H](CCC(N)=O)NC(=O)[C@H](C)NC(=O)[C@H](CCC(=O)O)NC(=O)[C@H](CC(=O)O)NC(=O)[C@@H](NC(=O)[C@H](CC(N)=O)NC(=O)CNC(=O)[C@H](CCC(N)=O)NC(=O)[C@@H](N)C(C)C)[C@@H](C)O)C(=O)N[C@@H](C)C(=O)N[C@@H](CCCCN)C(=O)N[C@@H](CCSC)C(=O)N[C@H](C(=O)N[C@@H](Cc1c[nH]c2ccccc12)C(=O)N[C@@H](CO)C(=O)N[C@@H](CC(=O)O)C(=O)N[C@H](C(=O)N[C@@H](CCSC)C(=O)N[C@@H](CCC(N)=O)C(=O)N[C@@H](CCC(N)=O)C(=O)N[C@@H](CSC1CC(=O)N(c2ccc3c(c2)C(=O)OC32c3ccc(N(C)C)cc3Oc3cc(N(C)C)ccc32)C1=O)C(N)=O)C(C)C)[C@@H](C)CC (stereo partly shown) [SEQ ID NO:111] (H-VQGNTDEAQEELAWKIAKMIWSDVMQQC(X1)-NH2)		dramatically reduced binding	binding to RIα, in words [1]: modestly decreased affinity
CC[C@H](C)[C@H](NC(=O)[C@H](CCCCN)NC(=O)[C@H](Cc1c[nH]c2ccccc12)NC(=O)[C@H](C)NC(=O)[C@H](Cc1ccccc1)NC(=O)[C@H](CCC(=O)O)NC(=O)[C@H](CCC(=O)O)NC(=O)[C@@H](N)CCC(N)=O)C(=O)N[C@@H](C)C(=O)N[C@@H](CCCCN)C(=O)N[C@@H](CCSC)C(=O)N[C@H](C(=O)N[C@H](C(=O)N[C@@H](CO)C(=O)N[C@@H](CC(=O)O)C(=O)N[C@H](C(=O)N[C@@H](Cc1ccccc1)C(=O)N[C@@H](CCC(N)=O)C(=O)N[C@@H](CCC(N)=O)C(=O)N[C@@H](CSC1CC(=O)N(c2ccc3c(c2)C(=O)OC32c3ccc(N(C)C)cc3Oc3cc(N(C)C)ccc32)C1=O)C(N)=O)C(C)C)[C@@H](C)CC)[C@@H](C)CC (stereo partly shown) [PV-48] (H-QEEFAWKIAKMIISDVFQQC(X1)-NH2)		less tolerant	
CC[C@H](C)[C@H](NC(=O)[C@H](CCCCN)NC(=O)[C@H](Cc1c[nH]c2ccccc12)NC(=O)[C@H](C)NC(=O)[C@H](CC(C)C)NC(=O)[C@H](CCC(=O)O)NC(=O)[C@H](CCC(=O)O)NC(=O)[C@H](CCC(N)=O)NC(=O)[C@H](C)NC(=O)[C@H](CCC(=O)O)NC(=O)[C@H](CC(=O)O)NC(=O)[C@@H](NC(=O)[C@H](CC(N)=O)NC(=O)CNC(=O)[C@H](CCC(N)=O)NC(=O)[C@@H](N)C(C)C)[C@@H](C)O)C(=O)N[C@@H](CCC(=O)O)C(=O)N[C@@H](CCCCN)C(=O)N[C@@H](CCSC)C(=O)N[C@H](C(=O)N[C@@H](Cc1c[nH]c2ccccc12)C(=O)N[C@@H](CO)C(=O)N[C@@H](CC(=O)O)C(=O)N[C@H](C(=O)N[C@@H](CCSC)C(=O)N[C@@H](CCC(N)=O)C(=O)N[C@@H](CCC(N)=O)C(=O)N[C@@H](CSC1CC(=O)N(c2ccc3c(c2)C(=O)OC32c3ccc(N(C)C)cc3Oc3cc(N(C)C)ccc32)C1=O)C(N)=O)C(C)C)[C@@H](C)CC (stereo partly shown) [AKB (null)] (H-VQGNTDEAQEELAWKIEKMIWSDVMQQC(X1)-NH2; N-terminus assumed)	> 10000		
CC[C@H](C)[C@H](NC(=O)[C@H](CCCCN)NC(=O)[C@H](Cc1c[nH]c2ccccc12)NC(=O)[C@H](C)NC(=O)[C@H](CC(C)C)NC(=O)[C@H](CCC(=O)O)NC(=O)[C@H](CCC(=O)O)NC(=O)[C@@H](N)Cc1ccccc1)C(=O)N[C@@H](C)C(=O)N[C@@H](CCCCN)C(=O)N[C@@H](CCSC)C(=O)N[C@H](C(=O)N[C@@H](Cc1c[nH]c2ccccc12)C(=O)N[C@@H](CO)C(=O)N[C@@H](CC(=O)O)C(=O)N[C@H](C(=O)N[C@@H](CCSC)C(=O)N[C@@H](CCC(N)=O)C(=O)N[C@@H](CCC(N)=O)C(=O)N[C@@H](CSC1CC(=O)N(c2ccc3c(c2)C(=O)OC32c3ccc(N(C)C)cc3Oc3cc(N(C)C)ccc32)C1=O)C(N)=O)C(C)C)[C@@H](C)CC (stereo partly shown) [PV-37] (H-FEELAWKIAKMIWSDVMQQC(X1)-NH2)		further disrupting RIIα binding	binding to RIα, in words [1]: dramatically enhanced binding to RIα
CC[C@H](C)[C@H](NC(=O)[C@H](CCCCN)NC(=O)[C@H](Cc1c[nH]c2ccccc12)NC(=O)[C@H](C)NC(=O)[C@H](Cc1ccccc1)NC(=O)[C@H](CCC(=O)O)NC(=O)[C@H](CCC(=O)O)NC(=O)[C@@H](N)CCC(N)=O)C(=O)N[C@@H](C)C(=O)N[C@@H](CCCCN)C(=O)N[C@@H](CCSC)C(=O)N[C@H](C(=O)N[C@H](C(=O)N[C@@H](CO)C(=O)N[C@@H](CC(=O)O)C(=O)N[C@H](C(=O)N[C@@H](Cc1ccccc1)C(=O)N[C@@H](CCC(N)=O)C(=O)N[C@@H](CCC(N)=O)C(=O)N[C@@H](CSC1CC(=O)N(c2ccc3c(c2)C(=O)OC32c3ccc(N(C)C)cc3Oc3cc(N(C)C)ccc32)C1=O)C(N)=O)C(C)C)C(C)C)[C@@H](C)CC (stereo partly shown) [PV-47] (H-QEEFAWKIAKMIVSDVFQQC(X1)-NH2)		less tolerant	
CC[C@H](C)[C@H](NC(=O)[C@H](CCCCN)NC(=O)[C@H](Cc1c[nH]c2ccccc12)NC(=O)[C@H](C)NC(=O)[C@H](CC(C)C)NC(=O)[C@H](CCC(=O)O)NC(=O)[C@H](CCC(=O)O)NC(=O)[C@@H](N)Cc1ccccc1)C(=O)N[C@@H](C)C(=O)N[C@@H](CCCCN)C(=O)N[C@@H](CCSC)C(=O)N[C@H](C(=O)N[C@@H](Cc1c[nH]c2ccccc12)C(=O)N[C@@H](CO)C(=O)N[C@@H](CC(=O)O)C(=O)N[C@H](C(=O)N[C@@H](Cc1ccccc1)C(=O)N[C@@H](CCC(N)=O)C(=O)N[C@@H](CCC(N)=O)C(=O)N[C@@H](CSC1CC(=O)N(c2ccc3c(c2)C(=O)OC32c3ccc(N(C)C)cc3Oc3cc(N(C)C)ccc32)C1=O)C(N)=O)C(C)C)[C@@H](C)CC (stereo partly shown) [PV-38] (H-FEELAWKIAKMIWSDVFQQC(X1)-NH2; N-terminus assumed)	456		Kd [1, 3]: 5.2 nM; Kd [1, 4]: 5.2 nM; Kd [2, 6]: 456 nM

From patent US7432342B2, “Kinase anchor protein muteins, peptides thereof and related documents” (Sequenom, Inc., priority 2002, dated 2008)
